The supplement of paper PMC3334620
In all, about 33,000 sequences were measured (“E-score (-0.5 to 0.5)”: median about -0.021, highest 2% from about 0.32 on). The list shows a part of the results.

Molecular target: T1, Zap1 (UniProt P47043)
T1 sequence: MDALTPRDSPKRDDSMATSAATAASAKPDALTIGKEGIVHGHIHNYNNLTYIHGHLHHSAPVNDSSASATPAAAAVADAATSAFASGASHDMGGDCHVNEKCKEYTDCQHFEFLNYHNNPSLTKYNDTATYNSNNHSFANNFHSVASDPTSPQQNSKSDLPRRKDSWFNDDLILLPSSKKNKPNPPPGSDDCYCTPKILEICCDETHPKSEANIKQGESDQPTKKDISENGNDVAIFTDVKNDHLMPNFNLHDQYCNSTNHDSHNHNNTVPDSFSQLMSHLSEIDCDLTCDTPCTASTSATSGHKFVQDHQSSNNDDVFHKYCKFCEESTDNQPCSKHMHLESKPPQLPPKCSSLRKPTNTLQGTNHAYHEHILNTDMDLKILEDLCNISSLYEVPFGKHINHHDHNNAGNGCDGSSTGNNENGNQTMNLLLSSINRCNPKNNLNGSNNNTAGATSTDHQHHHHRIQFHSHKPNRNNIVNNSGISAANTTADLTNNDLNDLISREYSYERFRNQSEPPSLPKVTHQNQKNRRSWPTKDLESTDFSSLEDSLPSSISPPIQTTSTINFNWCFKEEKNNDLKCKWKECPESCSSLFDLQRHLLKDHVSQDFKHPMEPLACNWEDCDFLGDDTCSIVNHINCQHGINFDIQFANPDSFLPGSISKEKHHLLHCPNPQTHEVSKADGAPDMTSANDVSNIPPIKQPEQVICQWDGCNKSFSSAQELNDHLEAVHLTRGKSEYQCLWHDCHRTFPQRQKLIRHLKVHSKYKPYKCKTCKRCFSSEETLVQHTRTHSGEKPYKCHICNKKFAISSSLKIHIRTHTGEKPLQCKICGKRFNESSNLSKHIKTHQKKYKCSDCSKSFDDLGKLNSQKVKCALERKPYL
Assay: PBM E-score (8-mer binding enrichment) (E-score (-0.5 to 0.5)); higher = stronger / more preferred TF binding; most listed sequences are background and not binding sites
Details: protein concentration: 200 nM; construct: GST-full length
Description: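 Universal 'all 10-mer' protein binding microarrays (Agilent AMADID 015681) probed with GST-tagged S. cerevisiae TFs (full-length or DBD) made by in vitro transcription/translation (PURExpress), about 100-200 nM. Bound TF was detected with fluorescent anti-GST. Each ungapped 8-mer (which stands for itself and its reverse complement) is scored by the PBM enrichment score (E-score), a modified Wilcoxon-Mann-Whitney statistic from -0.5 to +0.5, computed with the Universal PBM Analysis Suite. Scale: above 0.35 generally sequence-specific binding.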

Sequence	PBM E-score
CCTTAAAG	0.276
AGCTGGTG	-0.107
CATTTAGG	-0.0899
GCTTCGGA	-0.106
CAAGTTCA	-0.0629
GATTATGA	0.0655
CTGCAGAA	-0.103
CGCGGCTC	0.0661
CCGTTCGA	0.0486
CAGATGCA	-0.312
AACCACGA	0.242
GAATTGTA	0.0899
CTTGCAAA	-0.0664
AGAAACAA	0.248
ACATTAAG	0.209
CCCGCCGA	-0.0979
ACCGGTTA	0.372
GTTGGGTA	0.237
CCCAAGGC	-0.0489
GGAGGCTA	-0.136
ATAATCGC	0.189
GTGTTATA	0.123
CCAAAAAG	0.248
ACCACGGG	0.0669
AATTTTAC	0.0624

Sequence	PBM E-score
ACCTTTTA	0.411
CCGCCGCG	0.00453
ATCCTTTG	0.161
GATCGGCC	-0.175
CACTTTTC	0.092
GTATGCAC	-0.0756
AAAATCCT	0.0229
ATGCCCGG	-0.107
CCTGGATA	-0.083
ACCAGCTC	-0.0583
CGTCAACG	-0.197
TAAGTTAA	0.00685
ACATCGCG	-0.0245
GATTGTGC	-0.0973
TCGGTAAA	-0.0188
CCTGCCGC	-0.196
AGATACTC	-0.0853
ACTGACGA	-0.0465
AGTCTCCG	0.0457
GCTGCCAC	-0.188
AAGGACAT	0.131
GAAAAATA	0.286
GAGTACTC	-0.11
GCAGTGTA	-0.063
AGGAGCCA	-0.133

Sequence	PBM E-score
AACACTCA	0.0212
TGGTGGAA	-0.106
ACAGGCCG	-0.291
GTAAAAGA	0.0206
ACCAAAGT	0.0879
CGAAGCAG	-0.165
AACCAGTG	-0.0657
ACAGCTGG	-0.033
TTCCTCAA	-0.012
GAAAGCGC	-0.115
GAACCTTC	0.154
CCTAGACG	-0.243
CTAATTTA	0.0925
CACTGCAG	-0.0344
ATACCACG	0.0645
AGATTCGC	-0.176
ATGGCGTG	-0.0653
CGTGTACA	0.0312
CACTTTAA	0.117
GACCTGCC	-0.0362
CGGTAAAA	0.211
CCTTCCTC	-0.267
CACTAACG	-0.178
GCGTGACC	0.326
GAATATTC	-0.035

Sequence	PBM E-score
CACAGAGA	-0.0512
AAGCCCAA	-0.0803
CAATCTAG	0.0755
CAACCGGA	0.111
AACGTGGC	0.00227
CGATCCGC	-0.0876
ACTCGGGA	0.0288
AGTATTAC	0.135
AGTTACTG	-0.0654
ACTGAAAT	-0.0339
ATGATGTC	-0.115
CCCTCAGG	0.15
AGAAATGG	-0.021
CCTGGCTA	-0.076
CACAAGGC	-0.126
CAGGAGTC	-0.0562
TGAGCTCA	-0.0124
CATCAACA	-0.0272
CACATGTG	-0.0723
AGACTGGA	-0.178
AATGTCCG	-0.023
GAAAGCCA	-0.0639
CTGTCACA	-0.0635
AAAAATTA	0.165
ATGCGTGC	-0.29

Sequence	PBM E-score
GAATGTCC	-0.0577
AAGGATCA	0.106
AACTTTAA	0.249
TAGCTGGA	-0.192
ATGAAGAC	0.0365
GGGAGCTA	-0.213
CGTACGCC	-0.234
ATAAGGCA	-0.259
GAGCGTGA	-0.112
CTCGTGGA	0.0211
ATGAGTTG	0.0665
ATGTAGAA	-0.0546
AAATCGCC	-0.213
CACAGTTA	0.145
CAATCAAG	0.00432
CGAAAAGA	0.157
TGCAAACA	-0.123
CGAATCGA	0.00445
ACTAGGCG	-0.0942
GTTGTAGA	0.0206
ATCCCGCG	0.116
CGTTGCTC	-0.0141
ACGATACC	0.212
AAGCAGAT	0.056
CGTGTCTC	-0.135

Sequence	PBM E-score
ATGTCACC	0.116
TGCGATAA	0.291
CGTACACA	-0.0291
AATGGGGC	-0.124
AGTGGACC	-0.0131
ATGTCCGA	-0.0139
CATTAAAC	0.0948
CGATTTAA	0.0984
CAGGGATG	-0.142
CTGTAACC	0.463
GCTCTCCC	-0.0421
AAAATATT	0.136
ATTATGCA	-0.0552
AAAGCATG	-0.135
CCGGGAAA	0.00998
GGGAGGGA	-0.0783
CATAAATC	0.11
GATTTGGA	-0.23
GAGTAACA	0.135
AAGGGTCA	0.439
ATCTTCTA	0.0604
CACCCTGC	0.331
ACGGAAGC	-0.121
TACCTCAA	0.288
GCATTCCC	-0.0762

Sequence	PBM E-score
CGCCAGCG	-0.255
ACATGATC	0.207
TTGTGAAA	0.239
AAGGTTTA	0.226
ATCAACTA	0.116
ACATACCC	0.347
GCAAAGGA	0.0999
ATATTCCC	-0.0164
GAATTGCC	-0.178
GACCAACC	0.11
AAAGCAGA	-0.0585
CAAGAGGA	-0.0426
AAGCGAAC	-0.158
CGCGCTCA	-0.00437
ATACGACC	0.0013
CTGGGCTA	-0.128
CTATTTCA	0.25
ACGAGCAG	-0.18
AGCGACGG	-0.0755
CGCCAGGA	-0.0955
AAATCATA	0.144
CATCTTCC	-0.048
ACCGTCGT	0.0499
ACATTGGC	-0.22
CACCGGAC	0.123

Sequence	PBM E-score
CGGGCGAA	-0.0912
GGGCGAAC	0.0298
GTCGGTTA	0.189
CGGAGAGA	0.0099
AGGCGAAA	-0.114
TAGCGATA	0.0683
CAGGATGG	-0.0657
CAGGTTAC	0.424
AACCATGA	0.357
AATGCATT	0.0421
ATCCAACG	-0.139
GAATCCAA	-0.0693
GACGGGAC	-0.272
ACCCAGTG	0.16
AAGGAAAC	-0.01
ACACACTA	-0.0203
GCTGGCCC	-0.306
CTTTACAC	0.161
AGATATGC	-0.193
AAGCGTCC	-0.169
CAGCAGAG	-0.136
AAGGTACA	0.223
CGCTAAAG	0.143
AAAAGTCA	-0.12
CAAAGAGA	0.00712

Sequence	PBM E-score
ACTTGTGC	-0.146
TCGTTGAA	-0.00772
AAATCCTC	-0.279
ATAACTCC	0.128
CATATACA	0.109
CTAGGTAC	0.115
ACCGAGCT	-0.0899
GGATGCCC	-0.0591
CATAGTGA	-0.149
CGCAGACA	-0.04
ATGGTCAA	0.245
CATCCCAG	-0.03
ATATTCCA	0.0267
CTGCACCC	-0.0926
ATGACGGC	0.004
CGAGGAAA	-0.0957
CTATTTTC	0.0118
GCGCTGAC	-0.185
GTCACCTA	-0.104
